# Experimental data as given in PubChem BioAssay AID624296 (National Center for Advancing Translational Sciences (NCATS), 2012).
# The whole screen tested about 350,000 compounds, of which about 9,900 (2.8%) were called active. The shares of active, inactive and inconclusive entries below differ from those in the screen. Calls come from the whole dose curve; as a rule, active = well fitted activation curve with a large enough effect; inconclusive = small, poorly fitted or top-dose-only effect; inactive = no such curve, though single readings can be large or run the other way. No potency is given beside an inconclusive call; the fits are too rough.
# Assay: A quantitative high throughput screen for small molecules that induce DNA re-replication in MCF 10a normal breast cells. Note: nearly all actives have a fitted effect of over 50% in size.
# Settings: MCF 10A DNA re-replication, Hoechst nuclear intensity, 48 h; series mostly up to 46.1 µM
# Potency is the fitted concentration of half-maximal effect; tags give direction and shape of the fitted curve.
row,SMILES,Potency
1,Cc1cc(NC(=S)N(Cc2cccc(Br)c2)CC2CCC(C(=O)O)CC2)ccc1Cl (centres undefined),"inconclusive [activator, full curve, poor fit]"
2,Nc1nc2ccccc2n1CCOc1ccc(Cl)cc1,"inconclusive [activator, single point]"
3,Cn1nc(C(=O)NC2CCCCCC2)ccc1=O,inactive
4,O=C(c1cccs1)N1N=C(c2ccc(O)cc2)CC1c1ccccc1 (centres undefined),"inconclusive [activator, single point]"
5,O=C(Nc1cccc(C(F)(F)F)c1)c1cc(-c2cccs2)on1,inactive
6,CC(=O)Nc1ccc(NC(=O)CCS(=O)(=O)c2ccc3c(c2)oc(=O)n3C)cc1,"inconclusive [activator, partial curve, poor fit]"
7,Cc1ccc(S(=O)(=O)N(C)c2ccc(OC(=O)c3cccs3)cc2)cc1,inactive
8,CCOc1ccccc1N1CC(C(=O)Nc2ccc(S(=O)(=O)N3CCCCC3)cc2)CC1=O (centres undefined),"inconclusive [activator, partial curve, poor fit]"
9,COc1ccc(C)cc1NC(=O)CCNC(=O)c1ccco1,"inconclusive [activator, single point]"
10,CCN(CC)S(=O)(=O)c1ccc2oc(C(=O)N3CCCCCC3)c(C)c2c1,inactive
11,CCOC(=O)C1=C(c2cccc(F)c2)NC(=S)NC1C (centres undefined),inactive
12,COc1ccc(-n2cc(CNC3CCC(O)CC3)c(-c3cccc(F)c3)n2)cc1 (centres undefined),"inconclusive [activator, single point]"
13,Nc1nnc(CSCc2ccc(Cl)cc2)s1,"inconclusive [activator, partial curve, poor fit]"
14,Cc1nn(Cc2ccc(Cl)cc2)c(C)c1NC(=O)CCCn1nc(C)c([N+](=O)[O-])c1C,inactive
15,N#C/C(=C\c1cc2c(cc1Br)OCO2)C(=O)NCC1CCCO1 (centres undefined),"inconclusive [activator, single point]"
16,CCC(=O)N1c2ccc(S(=O)(=O)CCC(=O)NCc3cccs3)cc2CC1C (centres undefined),"inconclusive [activator, partial curve]"
17,CCCn1c(=O)c(C(=O)NCc2ccncc2)c(O)c2ccccc21,"inconclusive [activator, single point]"
18,CCN(CC)CCCNC(=O)c1cn(CC(C)C)c(=O)c2c1c1ccccc1n2C,inactive
19,Cc1ccc(S(=O)(=O)NCc2ccncc2)cc1C(=O)NCC(C)C,"inconclusive [activator, partial curve]"
20,CC(NC(=O)CS(=O)(=O)c1ccccc1)c1ccccc1 (centres undefined),inactive
21,CC(C(=O)NCCS(=O)(=O)c1ccc(Cl)cc1)S(=O)(=O)c1ccc(Cl)cc1 (centres undefined),inactive
22,CCOC(=O)c1[nH]cnc1C(=O)Nc1ccccn1,"inconclusive [activator, single point]"
23,CCCn1cnc2c(sc3nc4c(cc32)CSC(C)(C)C4)c1=O,inactive

row,SMILES,Potency
1,C=C1CCC[C@]2(C)C[C@H]3OC(=O)C(CNCCN(CC)CC)[C@H]3CC12 (some centres undefined),inactive
2,Cc1onc(-c2ccccc2)c1C(=O)N/N=C/c1c[nH]c2ccccc12,"inconclusive [activator, partial curve, poor fit]"
3,Cc1noc(C)c1C(=O)NC(C)C12CC3CC(CC(C3)C1)C2 (centres undefined),"inconclusive [activator, single point]"
4,COC(=O)c1c(NC(=O)CSc2ncnc3ccccc23)sc(C)c1C,"inconclusive [activator, partial curve, poor fit]"
5,CN(C(=O)c1cc2c(=O)n3ccccc3nc2s1)C1CCCCC1,"inconclusive [activator, partial curve, poor fit]"
6,Cc1ccc(-c2csc3ncn(CC(=O)O)c(=O)c23)cc1C,inactive
7,N=C1SC(c2ccccc2)C(=O)N1c1ncc(Cc2ccccc2)s1 (centres undefined),"inconclusive [activator, partial curve]"
8,Cc1ccc2oc(C(=O)NCc3ncc(C)[nH]3)c(C)c2c1,"inconclusive [activator, single point]"
9,COc1ccc(Cl)cc1N/C(N)=N/c1nc(CSc2ccc(C)cc2)cc(=O)[nH]1,"inconclusive [activator, partial curve, poor fit]"
10,CC(C)(C)NC(=O)CN1C(=O)NC(c2ccccc2)(c2ccccc2)C1=O,inactive
11,COc1cc(O)c(C(CCN2CCN(c3ccccc3)CC2)c2cc(OC)c(OC)c(OC)c2)c(OC)c1 (centres undefined),"inconclusive [activator, single point]"
12,O=C(CSc1nnc2sc3ccccc3n12)NCc1ccco1,"inconclusive [activator, partial curve, poor fit]"
13,O=C(CN1C(=O)NC2(CCCc3ccccc32)C1=O)NCc1ccc(Cl)cc1Cl (centres undefined),inactive
14,C=CCC(C(=O)OC)(C(=O)OC)c1ccccc1[N+](=O)[O-],"inconclusive [activator, single point]"
15,Cc1cccc(-c2cc3nc(C)cc(NCCCN(C)C)n3n2)c1,"inconclusive [activator, single point]"
16,O=C(NCC1CCOCC1)c1ccc2nc(Cc3cccc(Cl)c3)oc2c1,inactive
17,COc1ccc2cc3cc(C(=O)N(C)C4CCCCC4)oc3nc2c1,inactive
18,CCN(CC)CCCNC(=O)c1cc(-c2ccc(Cl)c(Cl)c2)on1,"inconclusive [activator, single point]"
19,c1ccc(-n2cnc3cc(NCc4ccncc4)ccc32)cc1,"inconclusive [activator, partial curve, poor fit]"
20,N=c1c2c(-c3ccccc3)c(-c3ccccc3)n(Cc3ccco3)c2ncn1CCN1CCOCC1,"inconclusive [activator, single point]"
21,Oc1ccc(C(=S)N2CCCC2)cc1,"inconclusive [activator, single point]"
22,CC(Oc1ccc2ccc(=O)oc2c1)C(=O)NCCN1CCOCC1 (centres undefined),"inconclusive [activator, single point]"
23,CCCCNc1ncnc2[nH]ncc12,"inconclusive [activator, single point]"

row,SMILES,Potency
1,Cc1ccccc1/C=C1\CCCc2ccccc2C1=O,"inconclusive [activator, single point]"
2,COc1ccccc1N(C(=O)CCl)c1cn(C(C)=O)c2ccccc12,"inconclusive [activator, single point]"
3,Cc1ccc(-c2nc(CS(=O)CC(=O)NC3CC3)c(C)o2)cc1 (centres undefined),active: 20.6 µM
4,N#Cc1cc(-c2ccc(Cl)cc2)cnc1Sc1ccccc1,"inconclusive [activator, partial curve, poor fit]"
5,Cc1cc(=O)oc2c(C(=O)/C=C/c3ccccc3)c(O)ccc12,"inconclusive [activator, full curve]"
6,CC(C)NC(=O)Nc1cccc2c1O[C@H](CN(C)C(=O)Nc1ccccc1)[C@@H](C)CN([C@H](C)CO)C2=O,"inconclusive [activator, single point]"
7,O=C(O)c1ccc2c(c1)C(=O)N(c1ccc(/C=C/C(=O)c3ccccc3)cc1)C2=O,"inconclusive [activator, single point]"
8,CC1(C)OC(=O)C(=CNn2cnc3ccccc3c2=O)C(=O)O1,"inconclusive [activator, full curve, poor fit]"
9,O=C(Nc1nc(-c2ccccc2)cs1)NC1CCCCC1,"inconclusive [activator, single point]"
10,COc1ccc(S(=O)(=O)N2CCOCC2)cc1NC(=O)c1ccc(Cl)cc1,inactive
11,O=C(Cc1ccccc1F)N1CCN(S(=O)(=O)c2ccc(Cl)cc2)CC1,active: 16.4 µM
12,NNC(=S)NCc1ccc2c(c1)OCO2,inactive
13,COc1ccc(C=C2SC(=S)NC2=O)cc1,"inconclusive [activator, single point]"
14,CCOc1ccc(/C=N/OCC(=O)Nc2ccc(OCc3ccccc3)cc2)cc1OC,"inconclusive [activator, full curve, poor fit]"
15,CCN(CC(O)CON=C1c2ccccc2-c2ccccc21)S(=O)(=O)c1ccc(Cl)cc1 (centres undefined),"inconclusive [activator, single point]"
16,c1ccc(-c2noc(-c3ccccc3-c3ccccc3)n2)cc1,"inconclusive [activator, partial curve, poor fit]"
17,Cc1ccc(CN2CCSc3ccc(C(=O)NCc4ccccn4)cc32)cc1,"inconclusive [activator, single point]"
18,O=C(CCCCCNC(=O)c1ccccc1)N/N=C/c1ccc(O)cc1O,"inconclusive [activator, partial curve, poor fit]"
19,CCOc1ncccc1C(=O)N1CCN(c2cccc(C)c2C)CC1,"inconclusive [activator, full curve, poor fit]"
20,COc1ccc(-c2csc3nc(C)n(-n4cccc4)c(=O)c23)cc1,"inconclusive [activator, single point]"
21,CCCCCCn1c(=O)c(Cc2ccccc2)c(O)c2ccccc21,inactive
22,CC(C)c1ccc(C(C)NC(=S)NC2CCCCC2)cc1 (centres undefined),"inconclusive [activator, single point]"
23,O=C(Nc1cccc([N+](=O)[O-])c1)NC1CCCCCCC1,"inconclusive [activator, single point]"
